This passage reports Kd and kon results from PMC9000588, “Structure/Function Analysis of Truncated Amino-Terminal ACE2 Peptide Analogs That Bind to SARS-CoV-2 Spike Glycoprotein” (Molecules, 2022).

Numbered stars: 1 amine (or outer) side, 2 acyl side, 3 side chain; on linkers, the order of the positions; unused ones are H or OH. Bridge positions count the residues as written; N and C are the ends. Ends that are not written are not given here. Suc = O=C(CCC(=O)[*:2])[*:1]

B1: Peptide 7 (Suc-KFNHEAEDLFEKLFEELFEDM-NH2) (peptide)
peptide: Suc-KFNHEAEDLFEKLFEELFEDM-NH2
SMILES: CSCC[C@H](NC(=O)[C@H](CC(=O)O)NC(=O)[C@H](CCC(=O)O)NC(=O)[C@H](Cc1ccccc1)NC(=O)[C@H](CC(C)C)NC(=O)[C@H](CCC(=O)O)NC(=O)[C@H](CCC(=O)O)NC(=O)[C@H](Cc1ccccc1)NC(=O)[C@H](CC(C)C)NC(=O)[C@H](CCCCN)NC(=O)[C@H](CCC(=O)O)NC(=O)[C@H](Cc1ccccc1)NC(=O)[C@H](CC(C)C)NC(=O)[C@H](CC(=O)O)NC(=O)[C@H](CCC(=O)O)NC(=O)[C@H](C)NC(=O)[C@H](CCC(=O)O)NC(=O)[C@H](Cc1c[nH]cn1)NC(=O)[C@H](CC(N)=O)NC(=O)[C@H](Cc1ccccc1)NC(=O)[C@H](CCCCN)NC(=O)CCC(=O)O)C(N)=O
B2: Peptide 4 (Suc-KFNHEAEDLFEKLM-NH2) (peptide)
peptide: Suc-KFNHEAEDLFEKLM-NH2
SMILES: CSCC[C@H](NC(=O)[C@H](CC(C)C)NC(=O)[C@H](CCCCN)NC(=O)[C@H](CCC(=O)O)NC(=O)[C@H](Cc1ccccc1)NC(=O)[C@H](CC(C)C)NC(=O)[C@H](CC(=O)O)NC(=O)[C@H](CCC(=O)O)NC(=O)[C@H](C)NC(=O)[C@H](CCC(=O)O)NC(=O)[C@H](Cc1c[nH]cn1)NC(=O)[C@H](CC(N)=O)NC(=O)[C@H](Cc1ccccc1)NC(=O)[C@H](CCCCN)NC(=O)CCC(=O)O)C(N)=O
B3: Peptide 1 (KFNHEAEDLFEKLM-OH) (peptide)
peptide: KFNHEAEDLFEKLM-OH
notes: also called ACE2(31-40)EKLM(82); the basic 14-mer
B4: Peptide 6 (CKFNHEAEDLFEKLMC-NH2, S=S bridge) (peptide)
peptide: CKFNHEAEDLFEKLMC-NH2
modifications: disulfide 1-16; N-terminus assumed
SMILES: CSCC[C@@H]1NC(=O)[C@H](CC(C)C)NC(=O)[C@H](CCCCN)NC(=O)[C@H](CCC(=O)O)NC(=O)[C@H](Cc2ccccc2)NC(=O)[C@H](CC(C)C)NC(=O)[C@H](CC(=O)O)NC(=O)[C@H](CCC(=O)O)NC(=O)[C@H](C)NC(=O)[C@H](CCC(=O)O)NC(=O)[C@H](Cc2c[nH]cn2)NC(=O)[C@H](CC(N)=O)NC(=O)[C@H](Cc2ccccc2)NC(=O)[C@H](CCCCN)NC(=O)[C@@H](N)CSSC[C@@H](C(N)=O)NC1=O
B5: Peptide 9 (Suc-LLEKLLEWLE-NH2) (peptide)
peptide: Suc-LLEKLLEWLE-NH2
SMILES: CC(C)C[C@H](NC(=O)CCC(=O)O)C(=O)N[C@@H](CC(C)C)C(=O)N[C@@H](CCC(=O)O)C(=O)N[C@@H](CCCCN)C(=O)N[C@@H](CC(C)C)C(=O)N[C@@H](CC(C)C)C(=O)N[C@@H](CCC(=O)O)C(=O)N[C@@H](Cc1c[nH]c2ccccc12)C(=O)N[C@@H](CC(C)C)C(=O)N[C@@H](CCC(=O)O)C(N)=O

The target in this assay is T1, recombinant SARS-CoV-2 spike glycoprotein receptor-binding domain (SARS-CoV-2, UniProt P0DTC2).
T1 construct: also called SARS-CoV-2 spike protein RBD; SPG RBD; source: bought: Sino Biological; expressed via baculovirus-insect cells; not shown: His tag (polyhistidine), C-terminal, kept
Kind of assay: SPR. The note with it: both partners purified.
The term Kd denotes a measure of binding affinity in units of concentration. The term kon denotes the second-order rate constant of association. As to Ac-KFNHEAEDLFEKLM-OH [Peptide 5 (Ac-KFNHEAEDLFEKLM-OH)], the Kd is 42900 µM and the kon was determined as 0.64 M⁻¹ s⁻¹.

Turning to GLFKEALEELWEA-NH2 [Peptide 8 (GLFKEALEELWEA-NH2)], the Kd is 2530 µM and the kon stood at 5.39 M⁻¹ s⁻¹.

As to KFNHEAEDLFEKLM (head-to-tail cycle (amide bond between the N-terminus and the C-terminus), also called cyclic 14-mer) [Peptide 3 (KFNHEAEDLFEKLM, head-to-tail cycle)], the Kd worked out at 518 µM and the kon was 15.1 M⁻¹ s⁻¹.

Consider B1, for which the Kd stood at 5050 µM and the kon is 4.29 M⁻¹ s⁻¹.

Take KFNDEAEDLFKLFEELFEDM-NH2 [Peptide 10 (KFNDEAEDLFKLFEELFEDM-NH2)]: the Kd was found to be 2660 µM and the kon was determined as 6.81 M⁻¹ s⁻¹.

Take KFNHEAEDLFEKLM-NH2 [Peptide 2 (KFNHEAEDLFEKLM-NH2)]: the Kd was determined as 23100 µM and the kon is 1.15 M⁻¹ s⁻¹.

Take B2: the Kd came to 1370 µM and the kon is 13.9 M⁻¹ s⁻¹.

B3: the Kd was determined as 2840 µM and the kon is 4.62 M⁻¹ s⁻¹.

In the case of B4, the Kd stood at 1830 µM and the kon came out at 6.84 M⁻¹ s⁻¹.

With B5, the Kd was found to be 3370 µM and the kon is 5.83 M⁻¹ s⁻¹.
